We go through 48 compounds from PubChem BioAssay AID1508624 (National Center for Advancing Translational Sciences (NCATS), 2021).

Each structure is given as a SMILES string. The whole screen tested about 48,000 compounds, of which about 120 (0.25%) were called active. Roughly 4% stayed inconclusive and do not appear here. Calls come from the whole dose curve; as a rule, active = well fitted activation curve with a large enough effect; inconclusive = small, poorly fitted or top-dose-only effect, or another doubt; inactive = no such curve, though single readings can be large or run the other way. The list shows a part of the results.

The nature of the assay: Primary qHTS for Identification of Small Molecule Activators of Huntingtin-Antisense Promoter Activity. Note: nearly all actives have a fitted effect of over 55% in size. The note with it: HEK293 HTT-AS promoter firefly luciferase reporter (activity 0% = vehicle and -100% = no light), 24 h; series mostly up to 57.5 µM; activity change, positive = activation: at the top concentration. The method in brief: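 HEK293 cells carrying firefly luciferase reporters were seeded at 2,500 per well in Opti-MEM and cultured for 24 h. They were then treated with compounds at up to 57.5 uM final for 24 h at 37 degrees C before Dual-Glo luminescence readout.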
Background: In qHTS, concentration-response curves come from the screen itself.
With `Cc1ccc2c(c1)cc(C(=O)Nc1ccc(F)cc1F)n2C`, the “activity change, positive = activation” value was inactive: 12.9%.

As to `CCOC(=O)c1cc(NC(=O)c2ccc(F)cc2)c(=O)n2c1oc1ccccc12`, the “activity change, positive = activation” value was inactive: -9.6%.

For the compound `Cc1ccc(C(=O)N(Cc2ccc(N(C)C)cc2)Cc2ccco2)cc1`, the “activity change, positive = activation” value is inactive: -22.8%.

As for `Cn1c(=O)c2cc(C(=O)N3CCN(c4ccc(Cl)cc4)CC3)sc2c2ccccc21`, the “activity change, positive = activation” value is inactive: -4.98%.

For `Cc1oc(-c2ccc(C(=O)Nc3cc(F)ccc3F)cc2)nc1COc1ccccc1`, the “activity change, positive = activation” value is inactive: -7.74%.

Consider `COc1cccc(NC(=O)CN(C)S(=O)(=O)c2ccc3nc(C)sc3c2)c1`, for which the “activity change, positive = activation” value was inactive: -12.6%.

Consider `COc1ccc(C)cc1N(C)C(=O)c1c(C)oc2ncnc(N3CCOCC3)c12`, for which the “activity change, positive = activation” value was inactive: -7.62%.

Consider `CN(c1ccc(Cl)cc1)S(=O)(=O)c1nnc(NC(=O)C2CCCCC2)s1`, for which the “activity change, positive = activation” value is inactive: -16.2%.

As to `COc1cc(C(=O)Oc2c(Sc3ccc(C)cc3)c(C)nn2-c2ccccc2)cc(OC)c1OC`, the “activity change, positive = activation” value is inactive: -30.9%.

As to `CCOc1ccccc1NC(=O)c1c(NC(=O)c2ccccc2C)sc2c1CCC(C)C2` (stereo not drawn), the “activity change, positive = activation” value is inactive: -7.2%.

Regarding `COC(=O)c1c(C)sc(-c2c(-c3ccc4c(c3)OCCO4)[nH]c3c2c(=O)n(C)c(=O)n3C)c1O`, the “activity change, positive = activation” value is inactive: -13.6%.

As to `CCNC(=O)c1cnc2sc(N3CCCCCC3)nn2c1=O`, the “activity change, positive = activation” value is inactive: 21.1%.

Turning to `Cc1ccc(CNC(=O)CCS(=O)(=O)c2cc(Br)cc3c2N(C(=O)C2CC2)CC3)cc1`, the “activity change, positive = activation” value was inactive: -5.09%.

`COc1cc2c(c(OC)c1OC)-c1ccc(OC)c(=O)cc1[C@@H](NC(C)=O)CC2`: the activity change, positive = activation result was “inactive”.

`Cc1ccc(-n2nc(CO)c(C(=O)NCc3cccs3)n2)cc1`: the “activity change, positive = activation” value was inactive: -19.1%.

For the compound `O=C(Nc1ccc(Cl)cc1)N1CCN(c2ccc3nnc(-c4ccc(F)cc4)n3n2)CC1`, the “activity change, positive = activation” value is inactive: -28.6%.

Regarding `COc1ccccc1CCNC(=O)C(=O)NCC(c1ccco1)S(=O)(=O)c1ccc(C)cc1` (stereo not drawn), the “activity change, positive = activation” value is inactive: -24.4%.

Consider `Cc1cc(C)c(S(=O)(=O)NCC(c2cccs2)S(=O)(=O)c2ccccc2)c(C)c1` (stereo not drawn), for which the “activity change, positive = activation” value is inactive: -38.9%.

As to `COc1ccccc1Nc1cc(C(=O)NCc2cccs2)c2ccccc2n1`, the “activity change, positive = activation” value is inactive: -23.1%.

Take `Cc1cc(NC(=O)Nc2nc3c(s2)CCCCCC3)ccc1Br`: the “activity change, positive = activation” value was inactive: -11.4%.

As to `CCCCn1c(CNC(=O)c2ccc(OC)cc2)nnc1SCC(=O)Nc1ccc(OC)cc1`, the “activity change, positive = activation” value was inactive: -22.1%.

In the case of `Cc1ccc(NCc2nc3ccccc3n2CCOc2ccccc2)cc1`, the “activity change, positive = activation” value is inactive: 11%.

Turning to `CCC(=O)N1CCc2cc(S(=O)(=O)CCC(=O)NCc3ccccc3OC)ccc21`, the “activity change, positive = activation” value is inactive: -11.9%.

As for `CCNC(=O)Cc1ccc(NC(=O)N2CCCCc3ccccc32)cc1`, the “activity change, positive = activation” value was inactive: 4.56%.

In the case of `CCCn1c2ccccc2c2cnn(CC(=O)NCCc3ccc(OC)cc3OC)c(=O)c21`, the “activity change, positive = activation” value is inactive: -12.9%.

As for `CCN(CC)c1nn2c(=O)c(C(=O)NCc3ccc(F)cc3)cnc2s1`, the “activity change, positive = activation” value was inactive: -7.28%.

Take `O=C1c2ccccc2-c2n[nH]c3cccc1c23`: the “activity change, positive = activation” value was inactive: -5.35%.

For `Cc1nc(-c2ccccc2)sc1CCNS(=O)(=O)c1ccc(Br)cc1`, the “activity change, positive = activation” value is inactive: -33.2%.

In the case of `O=C(c1ccc(OCCN2CCCCC2)cc1)c1c(-c2ccc(O)cc2)sc2cc(O)ccc12`, the activity change, positive = activation result is “inactive”.

Regarding `CCn1nc(C)c(CCN(C)C(=O)Nc2cc(Cl)ccc2C)c1C`, the “activity change, positive = activation” value is inactive: 7.59%.

Consider `COc1ccc(CC(=O)NCCc2csc(-c3ccc(Cl)cc3)n2)cc1`, for which the “activity change, positive = activation” value is inactive: -34.5%.

For the compound `O=C(CC(NCc1cccnc1)C(=O)O)Nc1ccc(F)cc1` (stereo not drawn), the “activity change, positive = activation” value is inactive: -4.92%.

For the compound `CCCNC(=O)c1ccc(-n2c(-c3ccccc3)cc3c2CCC(C)C3)cc1` (stereo not drawn), the “activity change, positive = activation” value is inactive: -56.6%.

Take `CCOc1ccccc1NC(=O)c1c(NCc2sccc2C)sc2c1CCCCC2`: the “activity change, positive = activation” value was inactive: -17.1%.

Regarding `C=Cc1ccc(Cn2c(C(=O)O)c(CNCc3cc(Br)ccc3OC)c3ccc(C)cc32)cc1`, the “activity change, positive = activation” value is inactive: -5.71%.

For the compound `Cc1cccc(N2CCN(C(=O)CS(=O)(=O)c3cccc4nsnc34)CC2C)c1` (stereo not drawn), the “activity change, positive = activation” value was inactive: -19.6%.

As for `CCCN1C(=O)C2(c3ccccc31)c1c(oc3ccccc3c1=O)C(=O)N2CCO` (stereo not drawn), the “activity change, positive = activation” value was inactive: -16.5%.

Take `NC(=O)CSc1ncc2c(n1)-c1ccccc1N(Cc1cccc(F)c1)S2(=O)=O`: the “activity change, positive = activation” value was inactive: 10.8%.

Consider `COc1ccc2nc3oc(C(=O)NCc4ccccc4OC)cc3cc2c1`, for which the “activity change, positive = activation” value was inactive: 13.8%.

With `COc1ccc(-c2noc(-c3nnn(-c4cc(C)ccc4C)c3N)n2)cc1`, the “activity change, positive = activation” value is inactive: 16.4%.

As for `COc1ccccc1-c1nnc(C2CCN(C(=O)c3ccc(C)cc3)CC2)o1`, the “activity change, positive = activation” value is inactive: 8.39%.

In the case of `Cc1ccc(-c2nc(CS(=O)CC(=O)N3CCN(c4ccc(Cl)cc4)CC3)c(C)o2)cc1` (stereo not drawn), the “activity change, positive = activation” value is inactive: -33.5%.

With `CN(C)S(=O)(=O)c1ccc2c(c1)N(CC(=O)N1CCN(c3ccc(F)cc3)CC1)CCS2`, the “activity change, positive = activation” value is inactive: -19.3%.

Consider `CNC(=O)c1ccc(N2C(=S)N(c3cnc(C#N)c(C(F)(F)F)c3)C(=O)C23CCC3)cc1F`, for which the “activity change, positive = activation” value was inactive: -8.59%.

For `CCN(CC)CCNC(=O)c1ccc(Cn2c(=O)c3cccn3c3cccnc32)cc1`, the “activity change, positive = activation” value is inactive: -1.39%.

On to `Cc1ccc(-n2ncc(C(=O)NCCc3ccsc3)c2C2CCN(C(=O)OC(C)(C)C)CC2)cc1C`, for which the “activity change, positive = activation” value is inactive: -41.5%.

On to `Cc1cc(NC(=O)CSc2ncc(C(=O)Nc3ccc(F)cc3)c(=O)n2C)no1`, for which the “activity change, positive = activation” value is inactive: -2.72%.

Take `Cc1nc2ccccc2c(=O)n1-c1ccc(NC(=O)C(F)(F)F)cc1`: the “activity change, positive = activation” value was inactive: -7.73%.
